Consider 32 variants from the supplement of paper PMC7125110.

B1: glmS ribozyme (parent)
chain: AUAAAAGCGCCAGAACUACAGAAAUGUAGUUGACGAGGAGGAGGUUUAUCGAAUUUUCGGCGGAUGCCUCCAAA

Conditions in all cases: with glucosamine-6-phosphate
Variants of B1 are the subject of data set [1]. In words: self-cleavage kobs at 160 uM GlcN6P; higher = faster cleavage; RNA array. Summed up:
(§1)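 Glucosamine-6-phosphate (40 μM to 10 mM) in HEPES/KCl/Mg(OAc)2 buffer was flowed over sequenced MiSeq chips, and tiles were imaged over ~14 h. Barcoded ribozyme variants there had been transcribed in situ by E. coli RNA polymerase and were tracked through a hybridised Cy3 probe at 37 °C. One- or two-exponential decay fits to per-tile medians, normalised to baseline and to non-cleaving reference variants, gave kobs. kcat and KM came from weighted Michaelis–Menten fits across concentrations.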

In data set [2] the parent is B1. In words: self-cleavage kobs at 640 uM GlcN6P; higher = faster cleavage; RNA array. Summed up: as §1
In data set [3] the parent is B1. In words: self-cleavage kobs at 2500 uM GlcN6P; higher = faster cleavage; RNA array. In short, it runs like this: as §1
The variants in data set [4] derive from B1. In words: self-cleavage kobs at 10000 uM GlcN6P; higher = faster cleavage; RNA array. Summed up:
as §1

± gives the standard error. Variants at the background level are over-represented here.

As for A14G A52C U57A C71G, the “self-cleavage kobs at 160 uM GlcN6P” value in the data set with glucosamine-6-phosphate [1] is under 1e-05 s⁻¹. Take A39G G40C: in the data set with glucosamine-6-phosphate [2], the “self-cleavage kobs at 640 uM GlcN6P” value was determined as 4.2e-05 ± 1.4e-05 s⁻¹. For the same variant, in the data set with glucosamine-6-phosphate [3], the “self-cleavage kobs at 2500 uM GlcN6P” value was 0.000101 ± 1.8e-05 s⁻¹. Besides, the “self-cleavage kobs at 10000 uM GlcN6P” value with glucosamine-6-phosphate [4] worked out at 8.35e-05 ± 1.4e-05 s⁻¹. Consider A6C C8G G35C C58U C67G, for which, in the data set with glucosamine-6-phosphate [1], the “self-cleavage kobs at 160 uM GlcN6P” value is under 1e-05 s⁻¹. In the data set with glucosamine-6-phosphate [3], the “self-cleavage kobs at 2500 uM GlcN6P” value is under 1e-05 s⁻¹.

G7C A14C G35C U57G: the “self-cleavage kobs at 2500 uM GlcN6P” value in the data set with glucosamine-6-phosphate [3] is under 1e-05 s⁻¹. In the case of A6U C8U A14G G62U, the “self-cleavage kobs at 2500 uM GlcN6P” value with glucosamine-6-phosphate [3] is under 1e-05 s⁻¹. Take A6U G38U U47C: the “self-cleavage kobs at 2500 uM GlcN6P” value with glucosamine-6-phosphate [3] was under 1e-05 s⁻¹. For C11A A12C C61U, the “self-cleavage kobs at 160 uM GlcN6P” value with glucosamine-6-phosphate [1] is under 1e-05 s⁻¹.

As to C11A U56G C58U, the “self-cleavage kobs at 160 uM GlcN6P” value with glucosamine-6-phosphate [1] is under 1e-05 s⁻¹. In the case of G38A G40A U49G G60U, the “self-cleavage kobs at 640 uM GlcN6P” value in the data set with glucosamine-6-phosphate [2] was under 1e-05 s⁻¹. The “self-cleavage kobs at 160 uM GlcN6P” value in the data set with glucosamine-6-phosphate [1] was under 1e-05 s⁻¹. Also, the “self-cleavage kobs at 2500 uM GlcN6P” value with glucosamine-6-phosphate [3] was under 1e-05 s⁻¹.

G38U G41U G43C G51A G66A: the “self-cleavage kobs at 640 uM GlcN6P” value in the data set with glucosamine-6-phosphate [2] was under 1e-05 s⁻¹. With G43C A53U, the “self-cleavage kobs at 640 uM GlcN6P” value in the data set with glucosamine-6-phosphate [2] is under 1e-05 s⁻¹. Also, the “self-cleavage kobs at 160 uM GlcN6P” value with glucosamine-6-phosphate [1] is under 1e-05 s⁻¹. In addition, in the data set with glucosamine-6-phosphate [3], the “self-cleavage kobs at 2500 uM GlcN6P” value was under 1e-05 s⁻¹. Also, in the data set with glucosamine-6-phosphate [4], the “self-cleavage kobs at 10000 uM GlcN6P” value was under 1e-05 s⁻¹. With G40U U54A C61A, in the data set with glucosamine-6-phosphate [2], the “self-cleavage kobs at 640 uM GlcN6P” value was under 1e-05 s⁻¹. In addition, in the data set with glucosamine-6-phosphate [3], the “self-cleavage kobs at 2500 uM GlcN6P” value was under 1e-05 s⁻¹. In addition, in the data set with glucosamine-6-phosphate [4], the “self-cleavage kobs at 10000 uM GlcN6P” value is under 1e-05 s⁻¹. As for G7U C58G A64C, the “self-cleavage kobs at 2500 uM GlcN6P” value with glucosamine-6-phosphate [3] was under 1e-05 s⁻¹.

With G37A C67G, the “self-cleavage kobs at 160 uM GlcN6P” value in the data set with glucosamine-6-phosphate [1] is under 1e-05 s⁻¹.

As for U47C U49G, the “self-cleavage kobs at 640 uM GlcN6P” value with glucosamine-6-phosphate [2] amounted to 6.46e-05 ± 1.7e-05 s⁻¹. In the data set with glucosamine-6-phosphate [3], the “self-cleavage kobs at 2500 uM GlcN6P” value is 0.000146 ± 3.2e-05 s⁻¹. Moreover, the “self-cleavage kobs at 10000 uM GlcN6P” value with glucosamine-6-phosphate [4] was determined as 0.000169 ± 3.6e-05 s⁻¹.

In the case of U30G G40C A42U, the “self-cleavage kobs at 160 uM GlcN6P” value in the data set with glucosamine-6-phosphate [1] is under 1e-05 s⁻¹.

Regarding U45C C50A G62U G66C, in the data set with glucosamine-6-phosphate [2], the “self-cleavage kobs at 640 uM GlcN6P” value was under 1e-05 s⁻¹. The same measure, in the same setting: the same measure for G38C G44U G51C A52C C71U: under 1e-05 s⁻¹. Regarding A39G A48U, in the data set with glucosamine-6-phosphate [2], the “self-cleavage kobs at 640 uM GlcN6P” value is 0.000139 ± 3.1e-05 s⁻¹. The “self-cleavage kobs at 2500 uM GlcN6P” value with glucosamine-6-phosphate [3] came out at 0.000436 ± 8.7e-05 s⁻¹. Moreover, the “self-cleavage kobs at 10000 uM GlcN6P” value with glucosamine-6-phosphate [4] came out at 0.000774 ± 0.00011 s⁻¹. In the case of U49A U55C C71G, the “self-cleavage kobs at 640 uM GlcN6P” value with glucosamine-6-phosphate [2] was under 1e-05 s⁻¹. A36U C61G C70G: the “self-cleavage kobs at 640 uM GlcN6P” value with glucosamine-6-phosphate [2] amounted to 9.55e-05 ± 2.6e-05 s⁻¹. Besides, the “self-cleavage kobs at 160 uM GlcN6P” value with glucosamine-6-phosphate [1] came out at 6.28e-05 ± 2.3e-05 s⁻¹. Consider G38U A52G U56A G60U, for which the “self-cleavage kobs at 640 uM GlcN6P” value in the data set with glucosamine-6-phosphate [2] was under 1e-05 s⁻¹. With C10U A15U G43A A53G, in the data set with glucosamine-6-phosphate [1], the “self-cleavage kobs at 160 uM GlcN6P” value was under 1e-05 s⁻¹. The “self-cleavage kobs at 2500 uM GlcN6P” value in the data set with glucosamine-6-phosphate [3] is under 1e-05 s⁻¹. For C10U G51A U55C, the “self-cleavage kobs at 160 uM GlcN6P” value with glucosamine-6-phosphate [1] is under 1e-05 s⁻¹. Besides, the “self-cleavage kobs at 2500 uM GlcN6P” value with glucosamine-6-phosphate [3] is under 1e-05 s⁻¹. Consider C11U A12C G43C, for which the “self-cleavage kobs at 160 uM GlcN6P” value in the data set with glucosamine-6-phosphate [1] is under 1e-05 s⁻¹. Also, the “self-cleavage kobs at 2500 uM GlcN6P” value with glucosamine-6-phosphate [3] is under 1e-05 s⁻¹. Consider A53U U69G, for which the “self-cleavage kobs at 640 uM GlcN6P” value in the data set with glucosamine-6-phosphate [2] stood at 4.69e-05 ± 1.2e-05 s⁻¹. Also, the “self-cleavage kobs at 160 uM GlcN6P” value with glucosamine-6-phosphate [1] was determined as 6.15e-05 ± 1.2e-05 s⁻¹. Further, in the data set with glucosamine-6-phosphate [3], the “self-cleavage kobs at 2500 uM GlcN6P” value amounted to 8.29e-05 ± 9.4e-06 s⁻¹. Moreover, the “self-cleavage kobs at 10000 uM GlcN6P” value with glucosamine-6-phosphate [4] was determined as 4.84e-05 ± 1.2e-05 s⁻¹. As for G7U A52G U56A C61A, in the data set with glucosamine-6-phosphate [3], the “self-cleavage kobs at 2500 uM GlcN6P” value is under 1e-05 s⁻¹. For the variant A6U C34U A36C C67A, the “self-cleavage kobs at 160 uM GlcN6P” value with glucosamine-6-phosphate [1] was under 1e-05 s⁻¹. Regarding A6G C10A G35A A36G G43A G63U, the “self-cleavage kobs at 2500 uM GlcN6P” value in the data set with glucosamine-6-phosphate [3] was under 1e-05 s⁻¹. Regarding U45A A48C C71A, the “self-cleavage kobs at 160 uM GlcN6P” value with glucosamine-6-phosphate [1] is under 1e-05 s⁻¹. Turning to C8U U54A G62C, the “self-cleavage kobs at 160 uM GlcN6P” value in the data set with glucosamine-6-phosphate [1] was under 1e-05 s⁻¹. Besides, the “self-cleavage kobs at 2500 uM GlcN6P” value with glucosamine-6-phosphate [3] was under 1e-05 s⁻¹.

As for A39C A42U G44U U54A, the “self-cleavage kobs at 640 uM GlcN6P” value with glucosamine-6-phosphate [2] is under 1e-05 s⁻¹. For the same variant, the “self-cleavage kobs at 2500 uM GlcN6P” value with glucosamine-6-phosphate [3] is under 1e-05 s⁻¹.
